Data on 30 compounds can be found in ChEMBL document CHEMBL4888484, “Replenishing the malaria drug discovery pipeline: Screening and hit evaluation of the MMV Hit Generation Library 1 (HGL1) against asexual blood stage Plasmodium falciparum ,using a nano luciferase reporter read-out” (2022).

The whole screen tested about 150,000 compounds, of which about 540 (0.36%) showed an effect of 50% or more. The list shows a part of the results.

As a reminder, the % Inhibition is the drop in the measured response relative to a control, in per cent.

In the test the test system is Plasmodium falciparum. Briefly: Primary screen in NF54 nanoGlo assay, in single point, at 2uM, 72h; a lower Z score goes with more inhibition. It is filed as functional, Erythrocyte. The note with it: timepoint 72 hour.
Turning to `COCCNC(N)=NC1CC(c2ccccc2)C1` (stereo not given), the “% Inhibition” value stood at 3% and the Z score is -0.37.
Take `O=C(NC[C@H]1CCCOC1)c1cccc(-c2ccc3c(c2)CCC3=O)c1`: the “% Inhibition” value is on record as -16% and the Z score is 3.15.
The like results for `COC1(C(F)(F)F)CN(C(=O)NCC(C)(C)c2cccnc2)C1` were, in that order, -15% and 2.4.
As to `Cc1cc(C(=O)NCCCn2ccnn2)c(=O)n(C)c1C`, the “% Inhibition” value was 1% and the Z score is -0.11.
The like results for `CS(=O)(=O)N1CCC(C(=O)Nc2ccccc2-c2ccccc2)CC1` were, in that order, -14% and 1.8.
Regarding `CCc1nnsc1C(=O)NCCOc1ccccc1`, the “% Inhibition” value is -9% and the Z score was determined as 1.1.
As for `Cn1cccc1CN(C(=O)COc1ccccc1F)C1CC1`, the “% Inhibition” value was 3% and the Z score is reported as -0.56.
For `Clc1ccccc1CCn1nnnc1N1CCCOCC1`, the “% Inhibition” value is recorded as -4% and the Z score is recorded as 0.84.
The like results for `Cn1nncc1C(=O)N1CC[C@@H]1Cc1ccccc1` were, in that order, -11% and 2.15.
For `CC(C)(CNC1CCC(Oc2cnccn2)CC1)c1ccccc1` (stereo not given) the same measures were -7% and 0.99.
The like results for `CC(C)[C@H](Cn1ccnn1)NS(=O)(=O)c1ccccc1C#N` were, in that order, 12% and -1.54.
With `COc1ccccc1CNC(=O)CN1N=C(c2ccccc2F)c2cc(Cl)ccc2S1(=O)=O`, the “% Inhibition” value was -16% and the Z score is listed as 1.5.
In the case of `O=C1NCCN1C(=O)NCC(c1ccco1)c1ccco1`, the “% Inhibition” value stood at 10% and the Z score is -1.28.
Turning to `O=C(O)c1cc(Cc2ccc(NC(=O)C(c3ccccc3)c3ccccc3)c(C(=O)O)c2)ccc1NC(=O)C(c1ccccc1)c1ccccc1`, the “% Inhibition” value is reported as -1% and the Z score was 0.18.
The like results for `Cc1cnc(C(=O)NC[C@H]2CCCN(c3ncnc4[nH]ncc34)C2)cn1` were, in that order, -14% and 1.54.
For `COc1ccccc1CS(=O)(=O)CCc1cn(C)nn1` the same measures were 0% and -0.04.
For `CC(C)n1[nH]c(=O)c2c1NC(=O)C[C@@H]2c1ccc2ncccc2c1` the same measures were 7% and -0.88.
On to `Cc1ccc(CC(=O)Nc2nc(C)no2)cc1`, for which the “% Inhibition” value is reported as -19% and the Z score was found to be 1.96.
For `CC[C@@H](C(=O)N1Cc2cnc(CC(C)C)nc2C1)c1ccccc1` the same measures were -17% and 1.67.
On to `COc1ccc(C(=O)c2ccccc2C(=O)Nc2cn[nH]c2)cc1`, for which the “% Inhibition” value is -8% and the Z score is reported as 1.57.
The like results for `Cc1nc(C(C)(C)NCCc2scnc2C)sc1C` were, in that order, -2% and 0.27.
For `Cc1nc(C(=O)N2CC(NC(=O)C3CCC3)C2)ccc1C#N` the same measures were -10% and 1.41.
Turning to `O=C(Cn1cnc2ccccc2c1=O)N1CCN(C(=O)c2cc3n(n2)CCCC3)CC1`, the “% Inhibition” value is -7% and the Z score is given as 1.1.
For `O[C@H]1CCCc2[nH]nc(-c3ccccc3)c21` the same measures were -6% and 0.9.
Regarding `CCOC(=O)CCN(Cc1cccnc1)Cn1nc(Cc2ccc(OC)cc2)oc1=S`, the “% Inhibition” value is reported as -4% and the Z score turned out to be 0.63.
The like results for `CCNC(=O)COc1ccc2c(c1)[C@H](c1cccc(C)c1)N(C(=O)c1ccco1)CC2` were, in that order, 2% and -0.19.
Turning to `O=C(c1cc(=O)[nH]c2ccccc12)N1C[C@H]2C[C@@H](C1)C1CCCC(=O)N1C2` (stereo not given in full), the “% Inhibition” value is -7% and the Z score was 0.93.
In the case of `Cc1nn(-c2nc[nH]n2)c(C)c1Cc1ccc(N)cc1`, the “% Inhibition” value stood at 5% and the Z score is listed as -0.61.
Turning to `CCOc1ccc(NC(=O)Cn2nc3c(N4CCN(c5ccccc5C)CC4)nccn3c2=O)cc1`, the “% Inhibition” value is recorded as -16% and the Z score turned out to be 1.55.
For `N#CC1CCC(N2C[C@@H](C#N)[C@H](c3ccccc3)C2)C1` (stereo not given in full) the same measures were 23% and -3.06.
